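At the GI50, growth is halved. TGI denotes the concentration required for complete inhibition of growth.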
Legend:
Experiment in all cases: DTP human tumour cell line panel, 384-well format
[1] = test system: CCRF-CEM leukemia
[2] = test system: NCI/ADR-RES ovarian
[3] = test system: RPMI-8226 leukemia
[4] = test system: SK-MEL-5 melanoma
[5] = test system: SR leukemia

**Q.** What does the source list for `O=C(CCCCCCC(=O)Nc1ccccc1)NO`?
**A.** GI50 [1]: 178 nM; TGI [1]: 324 nM; GI50 [2]: 241 nM; TGI [2]: 668 nM; GI50 [3]: 206 nM; TGI [3]: 462 nM; GI50 [4]: 285 nM; TGI [4]: 965 nM; GI50 [5]: 203 nM; TGI [5]: 375 nM

Source: PubChem BioAssay (NCI)
